Values marked as one replicate rest on one cluster of the flow cell; about a third of the high ones do not repeat.
System: ATP
Experiment: switch fluorescence ratio, 500 uM ATP over buffer (Cy3 cluster intensity, sum of 5 cycles each) (fold (ratio)); higher = stronger signal-on switching upon ATP binding; sequences stand for … in TCGTCGGCAGCGTCAGATGTGTATAAGAGACAGTTTTTTTTTTTTTTTTTTTTTTTTT…TC
Conditions: aptamer strand: ATP DNA aptamer (quencher-CACCTGGGGGAGTATTGCGGAGGAAGG + anchor), 100 nM annealed; ATP concentration: 500 uM; one replicate
Procedure, shortened: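 For every switch-domain sequence, the fluorescence ratio is the mean of per-cluster values, each being summed target-cycle Cy3 intensity over summed buffer-cycle Cy3 intensity. Clusters outside 100-1000 RFU were excluded. On a modified Illumina MiSeq flow-cell, the Cy3-labelled switching-strand clusters were annealed to 100 nM quencher-labelled ATP aptamer, imaged in selection buffer and then after 15 min with 500 uM ATP at 22 °C. Five such cycles were run, with NaOH stripping and re-annealing between them.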
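Note: ATP exposure 15 min at 22 °C before imaging.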

| Sequence | switch fluorescence ratio |
| --- | --- |
| AAAAGCATTA | 1.04 |
| AGTCGCAGT | 1.02 |
| GGAAACTAAC | 1.03 |
| GATCAGGCG | 1 |
| ATGCGTCTTG | 0.98 |
| TGTATTAGTC | 1.07 |
| CGGGAATTT | 1.54 |
| ATTCCCAGCT | 1.04 |
| TGATCATAGG | 1.01 |
| AGACCCGCTA | 1.64 |
| CTAGCTGTTC | 1.05 |
| TGGCAAACAA | 1.07 |
| ACCGCATGCG | 1.01 |
| AGTTCTCACT | 1.05 |
| AGTATGTGAG | 0.987 |
| GCTAGTAAAT | 0.986 |
| GCTAGACTGC | 0.938 |
| TGGTTGAGCG | 0.959 |
| GACGGGGTAC | 1.16 |
| AGCTGCCTT | 1.07 |
| ATGGTACGGG | 1.06 |
| ATGACTGGGT | 1.02 |
| ACGGAATAGC | 3.05 |

| Sequence | switch fluorescence ratio |
| --- | --- |
| GCGTTGCAAG | 0.994 |
| TAGTTGCGTA | 1.03 |
| TAATAGGTGC | 1.09 |
| ACTTGAGCG | 1.08 |
| ACATTAGAAG | 1.05 |
| CCACATTATC | 1.51 |
| TTACTGGAAA | 1.02 |
| GAAGAAAGTT | 0.956 |
| CATGCGGCAA | 3.55 |
| AACCCAAATA | 1.04 |
| GGTAAAGGAA | 0.979 |
| GCGCATCGAA | 0.977 |
| CTTAGTTCTT | 1.04 |
| AGTGCAATGT | 1.16 |
| AGTCGGGTTG | 1.01 |
| AGGAAGCTGA | 0.995 |
| ATAATCTCAG | 1.01 |
| TCGTATATCG | 1.02 |
| AATTCCTGAG | 1.12 |
| GATAAAAGGG | 1.06 |
| TCGGTTACAG | 1 |
| AGTATCTTTT | 1.02 |
| GCAATAGGGG | 1.6 |

| Sequence | switch fluorescence ratio |
| --- | --- |
| TGTAATCCAG | 0.987 |
| ATGCTCAGCC | 1 |
| GCTTTGAGGG | 0.988 |
| ACGCAGACTA | 1.88 |
| CAGTGTAGTA | 1.01 |
| TGCGCGATGG | 1.7 |
| AGGACAATGT | 1.07 |
| TTGATGGCGG | 1.03 |
| CGGCCGACGG | 1.01 |
| GTGATTAACA | 1 |
| AAGAGACCTG | 1.03 |
| CATCCATCGC | 1.26 |
| ATTCTAACTA | 0.944 |
| AAGCATCCGC | 1.07 |
| GTGCTCTGAA | 1.01 |
| TTAAAGATT | 0.99 |
| CCGGAATCAA | 1.76 |
| AGTATGACTT | 0.966 |
| AGACTTTACC | 1.26 |
| TTCCCGGCTT | 1.01 |
| TCTGGGCTGG | 1.02 |
| GCCCGCGAGG | 1.04 |
| TAAGGCTAAC | 1.03 |

| Sequence | switch fluorescence ratio |
| --- | --- |
| CAATGCCAGT | 1.01 |
| TTGGTCCATC | 1.02 |
| TCTATGACAT | 0.97 |
| GATTTATTAT | 1 |
| CTGCAAGTCC | 2.14 |
| AAGAACCGGA | 1.44 |
| CCCCGCAGCG | 4.68 |
| GGAGCTTGGA | 1 |
| AAAGAGGCGC | 1.04 |
| GTAAGCCTGC | 1.03 |
| GAGCCGGATT | 0.973 |
| TCTGGTTG | 0.999 |
| TTCGCCAGT | 0.976 |
| GCACTAAGAG | 0.994 |
| TTCAGTAGA | 0.969 |
| ACCTAACTTA | 1.09 |
| TTATCGTTT | 0.953 |
| TATAGTCCGT | 0.969 |
| TCACGCACGC | 1.85 |
| TTAACAAGTG | 0.956 |
| CCGACTTGGT | 1.08 |
| ACCCGTGTTT | 1.01 |
| GATAGGTATT | 1.08 |

| Sequence | switch fluorescence ratio |
| --- | --- |
| CGGGAGTAAG | 1.03 |
| CTTGCTCAAT | 1.18 |
| CATTTAACCG | 1 |
| CTTGGACCAA | 0.979 |
| ATCCCTAGGG | 1.32 |
| ATGAGGGTAT | 1.03 |
| TATATGGCTT | 0.995 |
| TGGAAAGCGG | 1.11 |
| TGTAGCACTT | 1.05 |
| TGGTGTCCGG | 0.981 |
| CTGAGAAGGA | 0.968 |
| ATTCCATCGT | 0.986 |
| ACCGATTTCG | 1.06 |
| GATGGGACTC | 1 |
| CGAGCGGGTG | 1.1 |
| TTTTACACCA | 1.09 |
| AAAAGCCCC | 1.07 |
| GGCTCCCTCC | 1.37 |
| AAAAATACA | 1 |
| CAGGAAGACG | 0.977 |
| GACTGATAGA | 1.03 |
| TGGCATTGG | 0.942 |
| TAGGCATGAA | 1.02 |

| Sequence | switch fluorescence ratio |
| --- | --- |
| CGAGGAGACT | 1 |
| AGCGTAGTGC | 0.982 |
| GTCTGCTGGG | 1.02 |
| CTCGTGGAGT | 1.01 |
| TTTAGCTCAA | 0.992 |
| ATGAGAATGG | 1.02 |
| AAATTGATTC | 1.01 |
| GTTTTCCTTA | 1.02 |
| CGAAACTTGT | 0.978 |
| TTTGAGGGT | 0.985 |
| TTTGGGTGT | 1.07 |
| ATAAAGAA | 1 |
| TGATTAGGCC | 0.989 |
| ATCACCGGGG | 1.04 |
| TGACTCATGT | 0.983 |
| TACCGTTGCT | 1.02 |
| AGTTTTCTCA | 1.13 |
| GGGAGGCCGC | 0.988 |
| CGAGATGCAG | 0.911 |
| GTGGTCCCCG | 0.981 |
| ACATCTCCTT | 0.993 |
| TCCGGGACAT | 1.07 |
| ATCAACCATT | 1.04 |

| Sequence | switch fluorescence ratio |
| --- | --- |
| AGGAGTTGCG | 1.01 |
| AATATACGGC | 1.04 |
| CGGAATTCTT | 1.03 |
| AATCTAGGGA | 0.968 |
| AATCTCATA | 1.02 |
| AGGACGGATT | 0.993 |
| TTAGTGTGGT | 0.984 |
| AGGCTAGGCG | 0.991 |
| TCAGGCTGGT | 1.01 |
| AAGCCTGATC | 1.29 |
| CAGGAGGTG | 1.02 |
| CGTTTTGTTC | 1.01 |
| CAGCGGCGTG | 0.948 |
| ATATGGCTT | 1.04 |
| AGTAGAATAT | 0.962 |
| CAAATCCCGG | 1.04 |
| GATGCGCAGC | 0.992 |
| ATGCTGTGCG | 1.02 |
| AAACTACCTT | 1.24 |
